{"source": "PubChem BioAssay AID1508624", "about": "(National Center for Advancing Translational Sciences (NCATS), 2021)", "note": "About 120 (0.25%) of roughly 48,000 compounds were called active. About 4% were inconclusive and are not listed. Calls follow the shape of the dose curve; as a rule, active = well fitted activation curve with a large enough effect; inconclusive = small, poorly fitted or top-dose-only effect, or another doubt; inactive = no such curve, though single readings can be large or run the other way. This is one part of the list. Potency is read from the fitted curve at half-maximal effect."}
{"test": "Primary qHTS for Identification of Small Molecule Activators of Huntingtin-Antisense Promoter Activity; also: nearly all actives have a fitted effect of over 55% in size", "conditions": "HEK293 HTT-AS promoter firefly luciferase reporter, 24 h; series mostly up to 57.5 µM; activity change, positive = activation: at the top concentration", "outline": "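Firefly luciferase signal from promoter-reporter HEK293 cells was scaled between vehicle (0%) and zero RLU (-100%). Compounds were tested at final concentrations of up to 57.5 uM over 24 h at 37 degrees C. PTC124 at 50 uM final served as control inhibitor.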"}
{"smiles": "O=C(c1ccc2c(c1)N(Cc1ccccc1Cl)C(=O)c1ccccc1S2)N1CCCC1", "activity change, positive = activation": "inactive: -30.6%"}
{"smiles": "CCc1cccc(NC(=O)Cn2c(-c3ccc(F)cc3)cc(C(C)=O)c2C)c1", "activity change, positive = activation": "inactive: -28.8%"}
{"smiles": "Cc1ccccc1CNC(=O)CN1CCSc2ccccc21", "activity change, positive = activation": "inactive: 7.07%"}
{"smiles": "Nc1nc2nc(-c3ccccc3)cc(=O)n2[nH]1", "activity change, positive = activation": "inactive: -7.61%"}
{"smiles": "COc1ccc(NC(=O)CN2CCCN(Cc3ccccc3)S2(=O)=O)cc1", "activity change, positive = activation": "inactive: -18.6%"}
{"smiles": "Cc1ccc(NC(=O)C2CCN(S(=O)(=O)c3ccc4c(c3)CCCC(=O)N4)CC2)c(Br)c1", "activity change, positive = activation": "inactive: -19.6%"}
{"smiles": "Cc1cccc(NS(=O)(=O)c2ccc3c(c2)n(C)c(=O)n3C)c1C", "activity change, positive = activation": "inactive: -22.9%"}
{"smiles": "Fc1ccc(CNc2nc(-c3ccc(Cl)cc3)cc(C(F)(F)F)n2)cc1", "activity change, positive = activation": "inactive: -27.3%"}
{"smiles": "CCCCOC(=O)c1ccc(NC(=O)c2ccc3c(c2)CCCN3S(C)(=O)=O)cc1", "activity change, positive = activation": "inactive: -29.4%"}
{"smiles": "O=C(CSc1nc2ccccc2nc1Cc1ccc(Cl)cc1)N1CCCCC1", "activity change, positive = activation": "inactive: -34.4%"}
{"smiles": "Cc1cc(=O)n2nc(N3CCC(C(=O)NCCCOC(C)C)CC3)sc2n1", "activity change, positive = activation": "inactive: -2.12%"}
{"smiles": "O=C(CSc1nnc(CNC(=O)c2ccccc2)n1-c1ccc(F)cc1)Nc1ccccc1F", "activity change, positive = activation": "inactive: -17%"}
{"smiles": "NS(=O)(=O)c1cc2c(cc1Cl)NC(CC1CCCC1)NS2(=O)=O", "note": "(stereo not drawn)", "activity change, positive = activation": "inactive: -12.9%"}
{"smiles": "O=C(CC1NCCNC1=O)Nc1ccc(F)c(Cl)c1", "note": "(stereo not drawn)", "activity change, positive = activation": "inactive: 11.2% [at 11.5 µM, percent change from vehicle, -100% = no light]"}
{"smiles": "Cc1nn(-c2ccc(F)cc2)c(-n2cccc2)c1C(=O)N1CCCCC1C", "note": "(stereo not drawn)", "activity change, positive = activation": "inactive: -9.79%"}
{"smiles": "Cc1cc(NC(=O)c2oc3c(c2C)-c2[nH]ncc2CC3)ccc1Br", "Potency": "active: 1120 nM"}
{"smiles": "CCCCOc1ccc(C(=O)Nc2sc3c(c2C(=O)OCC)CCCCC3)cc1", "activity change, positive = activation": "inactive: -15%"}
{"smiles": "COc1ccc(Nc2ncc(C(=O)Nc3ccc(F)cc3F)c3ccccc23)cc1", "activity change, positive = activation": "inactive: -19.4%"}
{"smiles": "CCOCCCn1c(SCC(=O)Nc2ccc(F)cc2)nc2c(sc3ccccc32)c1=O", "activity change, positive = activation": "inactive: 2.68%"}
{"smiles": "CCC(C(=O)Nc1cc(-c2cn3cccnc3n2)ccc1C)c1ccccc1", "note": "(stereo not drawn)", "activity change, positive = activation": "inactive: -6.08%"}
{"smiles": "COc1ccccc1N1CCN(S(=O)(=O)c2ccc3c(c2)CCCN3C(C)=O)CC1", "activity change, positive = activation": "inactive: -23.4%"}
{"smiles": "CN(C)CCNC(=O)c1ccc2nc(Cc3ccccc3)oc2c1", "activity change, positive = activation": "inactive: 9.42%"}
{"smiles": "Cc1ccc(Cl)cc1N1CCN(C(=O)c2sc3nc4n(c(=O)c3c2C)CCC4)CC1", "activity change, positive = activation": "inactive: -10.9%"}
{"smiles": "CCN(CC)C(=O)Cn1cc(SCC(=O)Nc2cc(OC)ccc2OC)c2ccccc21", "activity change, positive = activation": "inactive: -35.5%"}
{"smiles": "COc1ccc(Cl)cc1NC(=O)CSc1cc(C)[nH]c(=O)n1", "activity change, positive = activation": "inactive: -8.38%"}
{"smiles": "Cc1cccn2c(=O)cc(CSc3nnc(NC(=O)C(C)C)s3)nc12", "activity change, positive = activation": "inactive: -11.5%"}
{"smiles": "CCC(CC)C(=O)Nc1ccc2nc(SCC(=O)N3CCOCC3)sc2c1", "activity change, positive = activation": "inactive: -24.7%"}
{"smiles": "Cc1ccccc1C(=O)Nc1sc2c(c1C(=O)N1CCCCC1)CCC(C(C)(C)C)C2", "note": "(stereo not drawn)", "activity change, positive = activation": "inactive: 2.11%"}
{"smiles": "O=C(NCc1ccc(Cl)cc1)C1CCN(S(=O)(=O)c2ccc(F)cc2)CC1", "activity change, positive = activation": "inactive: -15.4%"}
{"smiles": "CSc1ccc(CCNC(=O)c2c(C)nn(-c3ccc(F)cc3)c2-n2cccc2)cc1", "activity change, positive = activation": "inactive: -35.2%"}
{"smiles": "CCC(C)n1c(SCc2ccc(F)cc2Cl)nc2ccsc2c1=O", "note": "(stereo not drawn)", "activity change, positive = activation": "inactive: -36.8%"}
{"smiles": "Cc1ccc(CSc2nc3ccc(NC(=O)CC(C)C)cc3s2)cc1", "activity change, positive = activation": "inactive: -17.8%"}
{"smiles": "CCOC(=O)c1noc2ncn(Cc3ccc([N+](=O)[O-])cc3)c(=O)c12", "activity change, positive = activation": "inactive: 5%"}
{"smiles": "COc1ccc(C(=O)NCC(c2ccc(N(C)C)cc2)N2CCOCC2)cc1", "note": "(stereo not drawn)", "activity change, positive = activation": "inactive: -15%"}
{"smiles": "CC[N+](CC)(CC)CCOc1cccc(OCC[N+](CC)(CC)CC)c1OCC[N+](CC)(CC)CC", "activity change, positive = activation": "inactive"}
{"smiles": "O=c1oc2ccccc2cc1-c1nc(-c2cccc(Cl)c2)cs1", "activity change, positive = activation": "inactive: -0.137%"}
{"smiles": "COc1ccccc1N1CCN(c2ncc3c(n2)CCN(Cc2ccc(C)s2)C3)CC1", "activity change, positive = activation": "inactive: -21.5%"}
{"smiles": "COc1ccc(Cl)cc1NC(=O)CSc1nc(-c2cccs2)cc(C(F)(F)F)n1", "activity change, positive = activation": "inactive: -32.8%"}
{"smiles": "COc1ccccc1Cn1c(C2CC(=O)N(c3ccccc3OC)C2)nc2ccccc21", "note": "(stereo not drawn)", "activity change, positive = activation": "inactive: -26.5%"}
{"smiles": "NCc1ccc(S(N)(=O)=O)cc1", "activity change, positive = activation": "inactive: -3.89%"}
{"smiles": "O=C(CSC1=Nc2ccccc2C2=NC(Cc3ccccc3)C(=O)N12)Nc1cccc(Cl)c1", "note": "(stereo not drawn)", "activity change, positive = activation": "inactive: -28%"}
{"smiles": "CCc1ccc2occ(CC(=O)Nc3c(C(=O)c4ccccc4)oc4ccccc34)c2c1", "activity change, positive = activation": "inactive: -11.4%"}
{"smiles": "CCOC(=O)c1c(-c2ccccc2)oc2ccc(NS(=O)(=O)c3ccc(C)cc3)cc12", "activity change, positive = activation": "inactive: -42.9%"}
{"smiles": "CCN1C(=O)c2ccccc2Sc2ccc(NC(=O)Nc3cc(C)cc(C)c3)cc21", "activity change, positive = activation": "inactive: -45.9%"}
{"smiles": "Cc1ccc(CNC(=O)c2cc3sc(Cl)cc3n2C)cc1", "activity change, positive = activation": "inactive: -15%"}
{"smiles": "CCOc1ccccc1CNS(=O)(=O)c1ccc(-c2cnc(C3CC3)o2)cc1", "activity change, positive = activation": "inactive: -56.8%"}
{"smiles": "COc1ccc(-c2noc(-c3nnn(-c4ccc(C)cc4C)c3C)n2)cc1", "activity change, positive = activation": "inactive: 5.75%"}
{"smiles": "COc1ccc(NC(=O)CSC2=Nc3ccccc3C3=NC(CCC(=O)NC4CCCCC4)C(=O)N23)cc1Cl", "note": "(stereo not drawn)", "activity change, positive = activation": "inactive: -10.5%"}
{"smiles": "COc1ccc(S(=O)(=O)c2cn(C)c3cc(N4CCCCCC4)c(F)cc3c2=O)cc1", "activity change, positive = activation": "inactive: -10.7%"}
{"smiles": "Cc1ccc(-n2nc(CO)c(C(=O)NCc3cccnc3)n2)cc1C", "activity change, positive = activation": "inactive: -9%"}
{"smiles": "O=C(Nc1cc(F)ccc1F)C1CCN(C(=O)c2cnn(-c3ccccc3)c2-n2cccc2)CC1", "activity change, positive = activation": "inactive: -29.7%"}
{"smiles": "Cc1ccc(NC(=O)CSc2nncn2C)c(C)c1", "activity change, positive = activation": "inactive: -0.983%"}
{"smiles": "COc1ccc(Cl)c2sc(NC(=O)c3ccc(S(=O)(=O)N4CCCC4)cc3)nc12", "activity change, positive = activation": "inactive: -14.6%"}
{"smiles": "COc1ccccc1NC(=O)CSCc1cc(=O)c2cccc(Cl)c2[nH]1", "activity change, positive = activation": "inactive: -21.1%"}
{"smiles": "COc1ccc(OC)c(C2CC(=O)Nc3c2c(=O)n(C)c2ncnn32)c1", "note": "(stereo not drawn)", "activity change, positive = activation": "inactive: -12.6%"}
{"smiles": "Cc1ccc(C)c(CN2CCCN(Cc3ccccc3C)S2(=O)=O)c1", "activity change, positive = activation": "inactive: -22.2%"}
{"smiles": "Cc1cc(C)cc(NC(=O)CN2C(=O)c3ccccc3Sc3ccc(C(=O)N4CCCC4)cc32)c1", "activity change, positive = activation": "inactive: -20.2%"}
{"smiles": "CCOC(=O)c1ccc(Nc2c(-c3ccc(N(C)C)cc3)nc3nc[nH]n23)cc1", "activity change, positive = activation": "inactive: 7.54%"}
{"smiles": "O=C(CN1C(=O)CCc2cc(Br)ccc21)Nc1ccc(OC(F)(F)F)cc1", "activity change, positive = activation": "inactive: -23%"}
{"smiles": "COc1ccccc1NC(=O)CSc1nnc2c(n1)[nH]c1ccccc12", "activity change, positive = activation": "inactive: -16.4%"}
{"smiles": "O=c1[nH]nc(Sc2ncc([N+](=O)[O-])s2)n1-c1ccc2c(c1)OCCO2", "activity change, positive = activation": "inactive: -94.7%"}
{"smiles": "COc1cccc(CNC(=O)c2nn(C)c3c2CSc2ccccc2-3)c1", "activity change, positive = activation": "inactive: -9.51%"}
{"smiles": "COc1ccc(NC(=O)c2cnc3cc(C)ccn3c2=O)c(OC)c1", "activity change, positive = activation": "inactive: -16.6%"}
